Among all 330,000 compounds or so, about 300 (0.091%) were called active. This list was built around the results that the source calls inconclusive (neither active nor inactive); the mix of calls is not that of the screen. The call rests on the fitted dose curve; in most records, active means well fitted inhibition curve with a large enough effect; inconclusive means small, poorly fitted or top-dose-only effect, or effect the other way, or another doubt; inactive means no such curve, though single readings can be large or run the other way. Potencies of inconclusive entries are left out as doubtful fits.
Each compound was assayed against Lysosomal acid glucosylceramidase (Homo sapiens) (UniProt P04062) (assay: qHTS Assay for Inhibitors and Activators of N370S glucocerebrosidase as a Potential Chaperone Treatment of Gaucher Disease). Conditions: N370S GC spleen homogenate, 4MU-glucoside fluorescence; activity change, negative = inhibition: at 59.4 µM (top of the series) unless noted.
Potency means the concentration at half of the fitted maximal effect.
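Wherever activity change, negative = inhibition is given: 0% = full enzyme activity and -100% = no enzyme basal.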

| SMILES | Potency | activity change, negative = inhibition |
| --- | --- | --- |
| CCOC(=O)c1ccccc1NC(=O)C1CC(=O)N(C2CCCCC2)C1 (centres undefined) | inconclusive [activator, single point] | – |
| CCc1cc(=O)oc2c(CN3CCCC3)c(O)c(Cl)cc12 | inconclusive [activator, partial curve] | – |
| CCOc1ccc(C2/C(=C(\O)c3ccc4c(c3)OCCO4)C(=O)C(=O)N2CCCN2CCOCC2)cc1OC (centres undefined) | inconclusive [activator, full curve] | – |
| Clc1ccccc1CONc1ncnc2nonc12 | inactive | – |
| Cc1cccc(NC(=O)Nc2ccc3c(c2)OCO3)n1 | inconclusive [activator, partial curve] | – |
| Cc1c(CC(=O)N[C@@H](C)C(=O)O)c(=O)oc2cc3occ(-c4ccccc4)c3cc12 | inconclusive [inhibitor, single point] | – |
| c1ccc(Sc2nc(N3CCCCC3)nc(N3CCCCC3)n2)nc1 | inconclusive [activator, single point] | – |
| CCOC(=O)Nc1sc(NS(=O)(=O)c2ccccc2)nc1C | inactive | – |
| Cc1cccc2sc(NNC(=O)c3ccc4c(c3)OCCO4)nc12 | inconclusive [activator, partial curve, poor fit] | – |
| C/C(=N\NC(=O)CC#N)c1cc2ccc(O)cc2oc1=O | inconclusive [activator, partial curve] | – |
| Cc1cccc(NC(=O)C2Cc3ccccc3CN2C(=O)OCc2ccccc2)c1C (centres undefined) | inconclusive [activator, single point] | – |
| COc1ccc2c(c1)C(=O)N(c1ccccc1)C(=O)C2 | inconclusive [inhibitor, single point] | – |
| Cc1cc(C)nc(SCc2cc(=O)c(OC(=O)c3ccc(S(=O)(=O)N4CCCC4)cc3)co2)n1 | inactive | – |
| Cc1ccc(S(=O)(=O)Cn2nnnc2C(CC(C)C)N2CCN(C(=O)c3ccco3)CC2)cc1 (centres undefined) | inconclusive [inhibitor, single point] | – |
| CC1CCN(CCc2nc3cc(NC(=O)COc4ccc([N+](=O)[O-])cc4)ccc3n2C)CC1 | inconclusive [inhibitor, partial curve, poor fit] | – |
| CC(C)(C)OC(=O)NCCCCCNC(=O)c1[nH]cnc1C(=O)N[C@@H](Cc1ccccc1)C(=O)OCc1ccccc1 | inconclusive [activator, partial curve] | – |
| CC1=C(OC(=O)c2ccc(Br)cc2)C(C)(C)C(c2ccccc2)OC1=O (centres undefined) | inconclusive [activator, full curve, poor fit] | – |
| CC(C)CNC(=S)N(CCN(C)C)Cc1cc2cc3c(cc2[nH]c1=O)OCCO3 | inconclusive [activator, single point] | – |
| CN(C)CCCN(C(=O)COc1ccccc1)c1nc2cc3c(cc2s1)OCCO3 | inconclusive [inhibitor, full curve, poor fit] | – |
| O=c1[nH]n(CC2COC3(CCCCC3)O2)c(=O)c2ccccc12 (centres undefined) | – | inconclusive: 14.5% [activator] |
| CCCS(=O)(=O)N1CCN(C2Cc3ccccc3C2)CC1 | – | inconclusive: 32% [activator] |
| CC(C)CCN1CC(O)=C(c2nc(-c3ccc(Cl)cc3)cs2)C1=N | inconclusive [activator, full curve] | – |

| SMILES | Potency | activity change, negative = inhibition |
| --- | --- | --- |
| COc1ccc(OC)c(NC(=O)C23CC4CC(C2)CC(n2cnc(Br)n2)(C4)C3)c1 | inconclusive [activator, partial curve] | – |
| O=C(NNC(=O)c1cc2cc3ccccc3nc2s1)c1cccc(C(F)(F)F)c1 | inactive | – |
| Cn1c(Sc2ccc(Br)cc2)c(C=O)c2ccccc21 | inconclusive [activator, partial curve, poor fit] | – |
| CC1CCCN(c2ccc(C(=O)NCc3ccccc3)cn2)C1 (centres undefined) | inactive | – |
| O=C(O)c1ccc(C(=O)Nc2cccc3ccccc23)c(C(=O)O)c1 | inconclusive [inhibitor, full curve, poor fit] | – |
| CC(C)OCCCNc1nc(-c2ccccc2)nc2ccccc12 | active: 1.78 µM | – |
| N#Cc1ccccc1OCC(=O)N(Cc1nnc(-c2ccccc2Cl)o1)C1CC1 | inconclusive [activator, partial curve] | – |
| O=S(=O)(NC1CCCc2ccccc21)c1cnc[nH]1 (centres undefined) | – | inconclusive: 40.2% [activator] |
| COc1ccccc1C(=O)OCC(=O)NC12CC3CC(CC(C3)C1)C2 | inconclusive [activator, single point] | – |
| Cc1ccc(-c2nc(NCCCO)c3ccccc3n2)cc1 | inconclusive [inhibitor, partial curve] | – |
| Cc1cccc(NC(=O)CSc2ccc(-c3ccco3)nn2)c1C | inactive | – |
| O=C(O)c1cc(-c2ccco2)nc2ccccc12 | inconclusive [activator, single point] | – |
| CCc1cccc(C)c1N(C(=O)Cn1c(COC)nc2ccccc21)C(C)COC (centres undefined) | inconclusive [activator, partial curve] | – |
| Cc1cc(C)cc(N(CC(=O)NCc2ccc(F)cc2)C(=O)c2snc(C(N)=O)c2N)c1 | inconclusive [activator, single point] | – |
| O=C(c1ccccc1)N1N=C(c2ccccc2)CC1c1cccs1 (centres undefined) | inconclusive [activator, partial curve] | – |
| CC(C)(C)c1cc(C(=O)NCCCn2ccnc2)cc(C(C)(C)C)c1 | inconclusive [inhibitor, single point] | – |
| Cc1cc(C)nc(N(C#N)Cc2cccc3ccccc23)n1 | inconclusive [activator, partial curve] | – |
| O=C1c2cccc3cccc(c23)C(=O)N1OS(=O)(=O)c1ccccc1 | inconclusive [activator, partial curve] | – |
| COc1cc(CNCCc2ccccc2)cc(Cl)c1OCc1ccccc1 | inconclusive [inhibitor, single point] | – |
| COc1ccc2nc(NC(=O)c3ccccc3C(=O)O)sc2c1 | inactive | – |
| CSc1nc(NCCCN(C)C)c2c3c(sc2n1)CN(C)CC3 | inconclusive [activator, partial curve] | – |
| CC(=O)C(Sc1nc(NC(C)(C)C)nc(N(C)C)n1)C(C)=O | inconclusive [activator, partial curve] | – |

| SMILES | Potency | activity change, negative = inhibition |
| --- | --- | --- |
| O=C1CC(c2ccccc2)CC(O)=C1C=NC1CCCC1 (centres undefined) | inconclusive [inhibitor, full curve, poor fit] | – |
| COc1ccc(NC(=S)N/N=C/c2cccn2Cc2ccc(F)cc2Cl)cc1 | inconclusive [activator, partial curve] | – |
| CC(=O)N1CCN(c2ccc(OC[C@H]3CO[C@](Cn4ccnc4)(c4ccc(Cl)cc4Cl)O3)cc2)CC1 | inactive | – |
| O=C(CSc1nnc(-c2cccnc2)n1CCc1ccccc1)N1CCCCC1 | inconclusive [inhibitor, partial curve] | – |
| CCO[C@@H]1OC(C(=O)N2CCCCCCC2)=C[C@H](c2cn(C(C)=O)c3ccccc23)[C@H]1CCCO | inconclusive [activator, partial curve] | – |
| Cc1sc2nc(-c3cccs3)nc(N3CCCN(C)CC3)c2c1C | inconclusive [inhibitor, partial curve, poor fit] | – |
| O=C(CN1C(=O)CC(c2ccccc2)S(=O)(=O)c2ccccc21)NC1CCCC1 (centres undefined) | inconclusive [activator, partial curve] | – |
| FC(F)(F)c1ccccc1-c1nc(NCc2cccnc2)c2ccccc2n1 | inconclusive [inhibitor, partial curve] | – |
| CC(C)(C)[C@H]1C=C(C(=O)NCc2ccccc2)O[C@@H](OCc2ccc(CO)cc2)C1 | inconclusive [activator, partial curve] | – |
| Cc1c(C(=O)Nc2ccc(-c3nnc4n3CCCCC4)cc2)oc2ccc(Br)cc12 | inconclusive [activator, partial curve, poor fit] | – |
| CCc1cc(=O)oc2c(CNCc3c(F)cccc3Cl)c(O)ccc12 | inconclusive [activator, partial curve] | – |
| CC1CCCCN1S(=O)(=O)c1ccc(C(=O)N(CCCN(C)C)c2nc3ccc(Br)cc3s2)cc1 (centres undefined) | inconclusive [inhibitor, single point] | – |
| COCCCN1CCN(C2Cc3ccccc3Sc3ccc(Cl)cc32)CC1 (centres undefined) | inconclusive [inhibitor, partial curve, poor fit] | – |
| CC1CCCN(CCCOc2ccc(Cl)cc2Br)C1 (centres undefined) | inconclusive [inhibitor, partial curve, poor fit] | – |
| Cc1ccc(C(=O)N2c3ccccc3CC2C)o1 (centres undefined) | inconclusive [activator, single point] | – |
| Cc1nc2ccccc2nc1N/N=C/c1ccc(O)cc1 | inactive | – |
| CC(=O)OCC(NC(=O)C(CCCCNC(=O)OCc1ccccc1)NC(=O)OC(C)(C)C)C1OC(n2cc(C)c(=O)[nH]c2=O)C(OC(C)=O)C1OC(C)=O (centres undefined) | inactive | – |
| Clc1ncn(C23CC4CC(CC(C4)C2)C3)n1 | inconclusive [activator, partial curve] | – |
| CCOc1ccccc1NC(=O)COC(=O)C(CC)c1ccccc1 (centres undefined) | inconclusive [activator, partial curve] | – |
| COc1ccccc1Nc1nc2c(s1)CCC2 | – | inconclusive: 21.8% [activator] |

Source: PubChem BioAssay AID2101 (National Center for Advancing Translational Sciences (NCATS), 2009)
